Test results from PubChem BioAssay (NCATS).
Inconclusive results, whose numbers are uncertain, are shown with a selection of clear calls. For part of these data: A potency beside an inconclusive call is a rough fit, not a confirmed value. Calls of active or inactive are those of the source. The call rests on the fitted dose curve; in most records, active means well fitted curve in the direction sought with a large enough effect; inconclusive means small, poorly fitted or top-dose-only effect, or another doubt; inactive means no such curve, though single readings can be large; an effect the other way counts as inactive or inconclusive.

What was measured:
[1] = molecular target: Ubiquitin carboxyl-terminal hydrolase 1 (Homo sapiens) (UniProt O94782); assay: Inhibitors of USP1/UAF1: Pilot qHTS (AID 504865);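 further: rhodamine fluorescence freed from ubiquitin-rhodamine substrate followed over time; nearly all actives have a fitted effect of over 35% in size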
UniProt O94782, sequence (O94782 whole entry, looked up): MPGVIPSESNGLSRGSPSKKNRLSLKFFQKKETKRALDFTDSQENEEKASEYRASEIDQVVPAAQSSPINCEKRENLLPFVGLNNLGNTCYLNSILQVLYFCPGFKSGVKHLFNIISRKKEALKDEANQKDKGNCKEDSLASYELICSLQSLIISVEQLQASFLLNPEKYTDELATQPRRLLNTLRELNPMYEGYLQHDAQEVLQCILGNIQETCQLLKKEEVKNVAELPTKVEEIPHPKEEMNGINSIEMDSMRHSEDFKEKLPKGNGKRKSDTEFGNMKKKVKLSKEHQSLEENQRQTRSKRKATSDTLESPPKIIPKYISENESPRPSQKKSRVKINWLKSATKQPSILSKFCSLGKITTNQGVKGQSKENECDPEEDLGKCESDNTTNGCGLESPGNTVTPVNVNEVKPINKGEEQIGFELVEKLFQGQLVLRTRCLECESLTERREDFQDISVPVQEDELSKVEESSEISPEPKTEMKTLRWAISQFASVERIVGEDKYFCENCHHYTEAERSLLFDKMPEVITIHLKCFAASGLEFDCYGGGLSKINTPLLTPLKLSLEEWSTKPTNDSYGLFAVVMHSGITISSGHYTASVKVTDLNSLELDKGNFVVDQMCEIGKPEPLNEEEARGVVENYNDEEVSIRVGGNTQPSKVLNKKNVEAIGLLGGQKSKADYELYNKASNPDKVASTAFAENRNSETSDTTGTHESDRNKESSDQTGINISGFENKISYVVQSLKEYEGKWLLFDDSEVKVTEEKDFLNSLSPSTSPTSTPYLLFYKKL
Summary of the method: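 Deubiquitinase activity followed as kinetic rhodamine fluorescence release from 150 nM Ub-Rho. 1 nM USP1/UAF1 with compound, after 15 min room-temperature preincubation, in HEPES pH 7.8 buffer containing TCEP, EDTA, BSA and Tween-20.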

[2] = qHTS for Inhibitors of ATXN expression: Validation of Cytotoxic Assay (AID 588349)
Summary of the method: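 HEK293 cells treated with titrated compound for 72 hr at 37 degrees C; viability read as intracellular ATP by CellTiter Glo luminescence.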

[3] = qHTS for Inhibitors of ATXN expression: Validation (AID 588378); further: nearly all actives have a fitted effect of over 75% in size
Summary of the method: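 Luciferase luminescence (Bright-Glo) from an ATXN2-FFLuc HEK293 line after 24 h compound exposure at 37 °C, preceded by a CellTiter-Fluor fluorescence viability read. Serial dilutions of a reference ATXN2 inhibitor and a luciferase inhibitor served as controls.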
Potency means the concentration at half of the fitted maximal effect; tags describe the fitted curve by direction and shape.

In the case of CCCCCCCCCCCCCCCC[N+](C)(C)CC, the Potency [1] is reported as active: 17.8 µM.
For CCCCC(=O)O[C@]1(C(=O)CO)[C@H](C)C[C@H]2[C@@H]3CCC4=CC(=O)C=C[C@]4(C)[C@@]3(F)[C@@H](O)C[C@@]21C, the Potency [1] was inconclusive: 63.1 µM [inhibitor, partial curve, poor fit].
With CC/C(=C(\c1ccccc1)c1ccc(OCCN(C)C)cc1)c1ccccc1 the Potency [1] was inconclusive: 56.2 µM [inhibitor, partial curve] [middle of 4 runs], the Potency [2] was active: 25.1 µM and the Potency [3] was active: 22.4 µM.
In the case of COc1ccc2cc([S+]([O-])Cc3ncc(C)c(OC)c3C)nc2c1, the Potency [1] is reported as inconclusive: 0.112 µM [inhibitor, full curve, poor fit] and the Potency [3] is reported as “inactive”.
For O=C(CCCN1CCC(O)(c2cccc(C(F)(F)F)c2)CC1)c1ccc(F)cc1, the Potency [1] was inconclusive: 100 µM [inhibitor, partial curve, poor fit] and the Potency [3] was inconclusive: 17.8 µM [inhibitor, partial curve].
In the case of Oc1cc2c(cc1O)C1c3ccc(O)c(O)c3OCC1(O)C2 (configuration not stated), the Potency [1] is reported as inconclusive: 50.1 µM [inhibitor, partial curve].
With C=CCNC1=C2C[C@@H](C)C[C@H](OC)[C@H](O)[C@@H](C)/C=C(\C)[C@H](OC(N)=O)[C@@H](OC)/C=C\C=C(/C)C(=O)NC(=CC1=O)C2=O the Potency [1] was inconclusive: 100 µM [inhibitor, partial curve, poor fit].
With O=C1C(=O)c2ncccc2-c2cccnc21 the Potency [1] was active: 50.1 µM.
